# Results published in the supplement of paper PMC3334620.
# In all, about 33,000 sequences were measured (“E-score (-0.5 to 0.5)”: median about -0.021, highest 2% from about 0.32 on). The list shows a part of the results.
# Target: T1, Zap1 (UniProt P47043)
# T1 sequence: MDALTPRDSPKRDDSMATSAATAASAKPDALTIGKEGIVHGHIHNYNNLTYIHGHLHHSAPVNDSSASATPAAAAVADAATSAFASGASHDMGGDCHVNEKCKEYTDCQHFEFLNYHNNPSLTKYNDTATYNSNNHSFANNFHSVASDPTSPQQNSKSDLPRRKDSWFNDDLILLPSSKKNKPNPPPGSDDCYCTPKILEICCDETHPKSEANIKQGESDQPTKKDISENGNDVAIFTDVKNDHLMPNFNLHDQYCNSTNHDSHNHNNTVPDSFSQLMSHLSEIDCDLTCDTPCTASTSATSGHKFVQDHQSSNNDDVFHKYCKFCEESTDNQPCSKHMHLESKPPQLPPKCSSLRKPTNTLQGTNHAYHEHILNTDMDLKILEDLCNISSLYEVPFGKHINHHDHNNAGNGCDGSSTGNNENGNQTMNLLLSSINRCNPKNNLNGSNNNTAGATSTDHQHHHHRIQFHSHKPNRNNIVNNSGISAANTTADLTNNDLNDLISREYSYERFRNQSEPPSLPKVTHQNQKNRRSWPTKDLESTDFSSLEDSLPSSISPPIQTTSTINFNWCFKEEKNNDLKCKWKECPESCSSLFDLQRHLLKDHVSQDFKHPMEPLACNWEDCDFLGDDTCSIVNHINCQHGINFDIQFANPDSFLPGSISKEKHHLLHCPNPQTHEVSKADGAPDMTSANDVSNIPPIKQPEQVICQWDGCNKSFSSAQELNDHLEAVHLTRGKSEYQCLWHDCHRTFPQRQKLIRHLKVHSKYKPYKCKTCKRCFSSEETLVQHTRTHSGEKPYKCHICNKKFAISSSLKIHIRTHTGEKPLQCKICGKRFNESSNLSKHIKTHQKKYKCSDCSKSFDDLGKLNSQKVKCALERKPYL
# Experiment: PBM E-score (8-mer binding enrichment) (E-score (-0.5 to 0.5)); higher = stronger / more preferred TF binding; most listed sequences are background and not binding sites
# Details: protein concentration: 200 nM; construct: GST-full length
# Outline: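 Yeast transcription factors carrying a GST tag, as full-length proteins or DNA-binding domains, were produced by PURExpress in vitro transcription/translation. About 100-200 nM protein was applied to universal all-10-mer Agilent arrays, double-stranded by primer extension on fresh or once-stripped slides. Bound protein was detected with fluorescent anti-GST, and scans were normalised with masliner. The Universal PBM Analysis Suite gave each ungapped eight-base word, pooled with its reverse complement, an E-score, a modified Wilcoxon-Mann-Whitney statistic.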
row,Sequence,PBM E-score
1,ACATAATA,0.0464
2,CCTCAATC,0.158
3,AATCTAGG,0.0629
4,ACAGTGTG,-0.206
5,AGCGTGTA,-0.0382
6,ACAAAACT,0.18
7,GGAATTCA,-0.0257
8,CAAAAGCG,-0.167
9,TGACCTCA,0.333
10,CACGGGGG,-0.313
11,CTTGGCAA,-0.197
12,GGAGTACA,-0.205
13,CAATGCTG,-0.214
14,AATTAAGT,0.0821
15,CAGATCTG,0.0443
16,CGACAAAC,0.0937
17,AATTCAGA,0.0774
18,CGTCGTAC,-0.137
19,ACTGGAGC,-0.208
20,GGCACGAA,-0.141
21,GGGACATA,-0.0106
22,ATCTCATG,0.0492

row,Sequence,PBM E-score
1,CCTTGTCG,-0.0206
2,AGGGCTCC,-0.299
3,AACTCAAG,0.155
4,AGTTGGTA,0.137
5,GCGACCCC,0.191
6,ACTTGGCG,-0.113
7,CGAAAGCG,-0.108
8,AATGGAAC,0.12
9,AAGAATAG,0.0466
10,ACCAGAGC,0.0649
11,GTCGTATA,-0.0837
12,CTACATGC,-0.107
13,AAGGAGCT,-0.317
14,ACTTGGAA,-0.114
15,ACGGCAAG,-0.313
16,ATCTGGCA,-0.132
17,CCAGACGA,-0.0609
18,AATGCCAC,-0.164
19,AAACTTCG,-0.0089
20,AACAGACG,-0.192
21,GCAAAGAC,0.0492
22,GCATTCAC,-0.0879

row,Sequence,PBM E-score
1,ACATCGGC,-0.187
2,AAGAATAA,0.0751
3,ACAATAGT,0.052
4,GACCCTAC,0.311
5,GGTCGAAA,-0.00628
6,CGCGGTAA,0.302
7,AGGGCCTC,0.112
8,AAGGCTGT,-0.0581
9,ATAGCGAT,0.0306
10,GGTACTCA,0.329
11,GGTTCGTA,0.134
12,CCCTTCAC,0.169
13,TATCACAA,0.13
14,CTTTTGTC,0.0509
15,GCACCATA,0.0877
16,CTGCCGTA,-0.19
17,ACAGCCTC,-0.186
18,CGCTCCAC,-0.301
19,CATTTTAG,0.174
20,TCTTTACA,0.169
21,ATTCGAAG,0.0566
22,TAGAGCAA,-0.0476

row,Sequence,PBM E-score
1,AGCTAAAA,-0.00168
2,ATGGCATG,-0.0339
3,TGATCGAA,0.0647
4,GTCGGCGA,-0.325
5,CAGCTCAG,-0.283
6,ATATTTCC,-0.0308
7,CCTGTCCC,-0.161
8,AATGGTGT,-0.00805
9,TATGCCGA,0.0602
10,CGTGTCCA,-0.137
11,GATTAAAC,0.107
12,AGAACCTG,0.0538
13,ATGTCGTA,0.0191
14,TAACGATA,0.19
15,ACCAAGTG,0.0166
16,AGGGCGGA,-0.103
17,AGGGACTC,-0.132
18,ATGCCTGC,-0.329
19,CTACGTAA,-0.0774
20,ATGGAGGC,-0.197
